The full ranking holds about 110,000 compounds; the median of “z-score” is about -0.1, and the highest 2% start at about 2. The list shows a part of the results. The source made the active and inactive calls.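 The calls were made as follows: active = z-score in the third read window above 3 or below -3; inactive = the rest.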

For the test, the target named is Metabotropic glutamate receptor 8 (Rattus norvegicus) (UniProt P70579). Kind of test: rat mGluR8 modulators via GIRK flux, primary screen, cell-based, thallium flux, HTS (AID 488969). The note with it: HEK293 rat mGluR8, GIRK (G protein-gated inwardly rectifying potassium channel) thallium flux, FluoZin2; at 10 µM; stronger effect = higher value; submaximal glutamate (EC20) added with thallium.
UniProt P70579, sequence (P70579 whole entry, looked up): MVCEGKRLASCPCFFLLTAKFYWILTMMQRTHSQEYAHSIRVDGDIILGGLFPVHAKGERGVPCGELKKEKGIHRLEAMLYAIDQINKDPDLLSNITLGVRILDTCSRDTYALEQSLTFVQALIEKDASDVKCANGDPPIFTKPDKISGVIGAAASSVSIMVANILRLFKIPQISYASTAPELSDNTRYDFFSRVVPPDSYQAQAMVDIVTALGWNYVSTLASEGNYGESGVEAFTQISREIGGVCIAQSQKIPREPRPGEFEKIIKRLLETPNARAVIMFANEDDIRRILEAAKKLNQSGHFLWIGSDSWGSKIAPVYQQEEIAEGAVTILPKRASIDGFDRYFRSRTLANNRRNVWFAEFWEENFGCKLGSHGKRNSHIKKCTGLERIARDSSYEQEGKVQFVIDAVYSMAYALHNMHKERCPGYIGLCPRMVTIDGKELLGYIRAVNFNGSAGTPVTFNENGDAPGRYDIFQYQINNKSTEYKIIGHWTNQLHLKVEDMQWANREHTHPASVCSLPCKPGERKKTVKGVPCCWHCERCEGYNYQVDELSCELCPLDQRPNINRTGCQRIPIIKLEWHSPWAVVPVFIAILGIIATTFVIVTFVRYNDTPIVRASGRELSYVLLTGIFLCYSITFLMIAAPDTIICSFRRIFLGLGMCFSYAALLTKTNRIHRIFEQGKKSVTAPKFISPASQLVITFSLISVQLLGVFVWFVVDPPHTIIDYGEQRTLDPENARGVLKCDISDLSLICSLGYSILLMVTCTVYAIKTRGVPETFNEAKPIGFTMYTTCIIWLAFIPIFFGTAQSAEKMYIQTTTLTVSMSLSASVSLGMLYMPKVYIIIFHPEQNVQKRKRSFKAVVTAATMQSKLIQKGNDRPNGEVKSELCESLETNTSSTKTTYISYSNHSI
`Cc1ccc(N(C(C)C(=O)N2CCC(C)CC2)S(C)(=O)=O)cc1C` (stereo unspecified) yielded a z-score of -0.252.
`CCOC1(OCC)C(c2ccc(N)cc2)C(C#N)(C#N)C1(OCC)OCC` (stereo unspecified): the z-score was -0.359.
The compound `Cc1ccc(-n2ncc3c2ncn2c(C)nnc32)cc1C` yielded a z-score of -0.203.
Turning to `O=C(CCCCn1c(=O)c2ccccc2n(Cc2ccc(F)cc2Cl)c1=O)NCc1ccco1`, the z-score was -1.01.
The value for `O=c1c2ccccc2nc(SCc2cccc(F)c2)n1C1CCCC1` was -0.271; that for `CC1CCN(c2oc(-c3ccccc3F)nc2C#N)CC1` was 2.57.
Regarding `O=C1CCCC(O)=C1C1NCCc2ccccc21` (stereo unspecified), the z-score worked out at 0.281.
Consider `O=C(NCc1ccco1)c1cc(-c2ccc3c(c2)OCO3)on1`, for which the z-score is -0.862.
As for `COc1ccc(-c2nn3c(-c4cccc(C)c4)nnc3s2)cc1OC`, the z-score was -1.06.
Compound `CCOC(=O)c1cc(-c2ccc(/C=N\n3cnnc3)o2)ccc1Cl` came in with a z-score of -0.855.
The value for `O=C(NC1CCCC1)C(c1ccco1)N(Cc1ccccc1)C(=O)c1csnn1` (stereo unspecified) was 0.267.
`O=S(=O)(NC1CCN(Cc2ccccc2)CC1)c1cccc(S(=O)(=O)N2CCOCC2)c1` yielded a z-score of -0.00491.
The value for `CN(C(=O)c1cccnc1)c1nnc(-c2cnccn2)s1` was active: -5.48.
Consider `C/C(=N\Nc1nc2c(s1)CCCC2)c1ccccc1`, for which the z-score is -0.113.
For the compound `CCSc1nc2ccccc2n1CC(N)=O`, the z-score was -0.307.
To `O=C(NC1CC2CCCC(C1)N2C(=O)Nc1ccc(Cl)c(C(F)(F)F)c1)C1CC1` (stereo unspecified) belongs -0.823; to `Cc1ccccc1-n1nnnc1SCC(=O)Nc1ccc(S(=O)(=O)N2CCCC2)cc1`, 0.135; to `O=C(NCC(F)(F)F)Nc1ccccn1`, 1.45.
To `CCOc1cc2c(C#N)c(N3CCCCC3)nc(N)c2c(N)n1` belongs -0.553.
`O=C(ON=C1CCN(c2ccc([N+](=O)[O-])cc2)CC1)c1ccccc1`: the z-score was -0.654.
The value for `Nc1cc(=O)[nH]c(=S)n1-c1cccc(C(F)(F)F)c1` was -0.213; that for `CCCCNC(=O)CSc1nc2ccccc2c(=O)n1CCNC(C)=O` was -0.141.
Compound `Cc1ccc(/C=C2/NC(=O)N(Cc3ccccc3)C2=O)s1` gave a z-score of -0.0544.
For the compound `CCOC(=O)c1c(-c2ccc(C)o2)csc1NC(=O)CN1CCN(CC)CC1`, the z-score came out at 0.301.
Compound `O=C(Nc1nnc(SCc2ccc(Cl)cc2)s1)C1CCCO1` (stereo unspecified) had a z-score of 0.069.
`CCOC(=O)c1c(C)nc(SC)c(C#N)c1-c1ccccc1` returned a z-score of -0.602.
To `CCOC(=O)c1c(NC(=O)C2C3CCC(O3)C2C(=O)O)sc(C)c1-c1ccc(C)cc1` (stereo unspecified) belongs -0.26; to `CC(=O)c1sc(NC(=O)C=C(C)C)nc1C`, 0.385; to `COc1ccc(Nc2nc(-c3cccs3)cs2)c(OC)c1`, 0.0723.
Compound `COC(=O)c1nn2c(C(F)(F)F)cc(-c3ccc(Br)o3)nc2c1Br` gave a z-score of 0.186.
`Cc1ccc(-n2c(N)c(C(=O)NCc3ccco3)sc2=S)cc1` showed a z-score of -0.322.
Turning to `COc1cccc(-c2nn(-c3ccccc3)cc2/C=C(\C#N)C(=O)NCCCn2ccnc2)c1`, the z-score was -0.356.
To `COc1ccc(-n2nnc3c(SCC(=O)OCc4ccccc4)ncnc32)cc1` belongs -0.804; to `O=C(COC(=O)c1ccc(Br)o1)Nc1ccc(S(=O)(=O)N2CCCC2)cc1`, -0.167.
To `Cc1ccc(/C=C/c2nnc(-c3ccc(C)cc3)o2)cc1` belongs -0.335.
Turning to `Brc1ccccc1-c1nnc(CSc2nnnn2-c2ccccc2)o1`, the z-score stood at 0.0301.
As to `c1ccc(-c2ncnc3cc4n(c23)CCC4)cc1`, the z-score was -0.079.
The compound `COc1cc(Cl)c(C)cc1NC(=O)CSC` returned a z-score of 0.0277.
To `COC(=O)[C@H](CC(C)C)NC(=O)NC1CCCCC1C` (stereo partly specified) belongs -0.192; to `COc1cc(OC)cc(C(=O)NCc2cccnc2)c1`, -0.0129.
On to `CS(=O)(=O)N(CCc1ccccc1)CC(=O)N1CCN(Cc2ccccc2)CC1`, for which the z-score stood at 0.364.
The value for `CSc1nc(-c2ccccc2)nn1C(=O)c1ccc(Cl)cc1` was -0.251.
On to `CCOC(=O)c1[nH]c2ccccc2c1NC(=O)C(CC)CC`, for which the z-score came to 0.0802.
To `CCN(CC)CCCN(Cc1cc2cc(OC)ccc2[nH]c1=O)C(=O)Nc1ccc(F)cc1` belongs -0.482.
To `COC(=O)COc1ccc(S(=O)(=O)NCc2ccco2)cc1Cl` belongs -0.0546; to `Cc1nc2c(s1)sc1ccccc12`, -0.637.
The value for `Cc1ccc(C(NC(N)=O)c2ccccc2)cc1` (stereo unspecified) was -0.39; that for `COc1ccc(N2CCN(Cc3nc4c(c(=O)[nH]c(=O)n4C)n3CC(C)=O)CC2)cc1` was -0.158; that for `Cc1ccc(Oc2nc(-c3ccccc3)ncc2S(=O)(=O)c2ccc(C)cc2)cc1` was 0.119.
As to `c1csc(-c2nnc3ccccn23)c1`, the z-score was -0.45.
Consider `O=S(=O)(NCC(Nc1ccccc1)c1ccccc1)c1ccc(Cl)cc1` (stereo unspecified), for which the z-score is -0.232.
The value for `CC(SC1=NCCS1)C(=O)Nc1nnc(-c2ccc(Br)cc2)s1` (stereo unspecified) was 0.627; that for `CCCc1nnc(NC(=O)c2ccc([N+](=O)[O-])cc2)s1` was -0.172.
The value for `COc1ccc(CCN(C(=O)C(F)(F)F)C(C(=O)NC2CCCC2)c2cccs2)cc1` (stereo unspecified) was -0.312; that for `COc1ccc(-c2nc(-c3cccc(C)c3)nc(N3CCN(C)CC3)c2C#N)cc1` was 0.000744; that for `Cc1cccc(NCc2ccccc2O)c1` was 0.0826.
The value for `CN(C)c1nc(N)nc(CSc2nc3cc(Cl)ccc3o2)n1` was 0.22; that for `O=C1c2ccccc2C(=O)N1CCc1nc(-c2cccnc2)no1` was -0.203.
In turn, `COc1ccc(OC)c2sc(NC(=O)c3ccc(S(=O)(=O)N(C)C)cc3)nc12` had a z-score of -0.398.
The value for `CC1CCCCC1NC(=O)COC(=O)c1c2c(nc3ccccc13)/C(=C/c1ccco1)CC2` (stereo unspecified) was -0.398.
The value for `CCc1nc(OCc2ccccc2)c2sc3nc4c(cc3c2n1)COC(C)(C)C4` was -0.296; that for `CCCC(=O)NCCc1cc2ccc(OC)cc2[nH]c1=O` was -0.0851.
The compound `CC(C)Cc1cc(C(=O)Nc2cccnc2)no1` registered a z-score of 1.89.
As to `CCCC/C(C)=N/NC(=O)NC1CCCCC1`, the z-score is -0.359.
To `Cc1c(C(=O)CN2CCSCC2)c2ccccc2n1C` belongs -0.257; to `COc1ccccc1CC(NC(C)=O)C(=O)N1CCN(C(=O)c2cccs2)CC1` (stereo unspecified), -0.248; to `COc1cc(C(=O)NNC(=O)NC2CCCCC2)cc(OC)c1OC`, -0.104.
To `CC(N=C(NS(=O)(=O)c1ccc(Cl)cc1)c1ccccc1)C(=O)O` (stereo unspecified) belongs -0.217.
As to `COc1ccccc1/C=N/NC(=O)CCn1cnc2ccccc21`, the z-score is 0.0317.
Compound `CCOc1cc(S(=O)(=O)NC2CCCCC2)ccc1F` displayed a z-score of -0.215.
The value for `O=C(CCc1ccc(S(=O)(=O)N2CCOCC2)cc1)Nc1ccc(N2CCOCC2)cc1` was -0.442; that for `CCCC(C)C(=O)Nc1nc(C)c(-c2csc(Nc3ccccc3OC)n2)s1` (stereo unspecified) was -0.235; that for `Cn1nnc(NC(=O)c2cccc(OCc3ccccc3)c2)n1` was -0.179.
Compound `CCOC(=O)c1cccc(N2C(=O)C3C(C2=O)C2C=CC3C23CC3)c1` (stereo unspecified) displayed a z-score of 0.353.
With `CCN1CCN(C(=O)c2cc(-c3cccnc3)nc3ccc(Br)cc23)CC1`, the z-score was -0.216.
The value for `O=C(CCC1CCCCC1)NCc1ccccn1` was -0.193; that for `CC(C)(C)NC(=O)CSc1nnc(NC(=O)CCn2cnc3ccccc3c2=O)s1` was 0.0967.
To `Cc1ccc(-n2nc3cc(Cl)c(NC(=O)c4ccco4)cc3n2)cc1` belongs 0.413; to `C(=N\N1CCN(Cc2ccccc2)CC1)/c1cccnc1`, -0.288; to `O=C(Nc1ccccc1-c1nc2ccccc2o1)c1ccc2c(c1)OCCO2`, 0.0863.
To `Cc1ccc(F)cc1NCC(=O)Nc1ccc(Br)cc1` belongs -0.285.
Turning to `CC(c1ccco1)N(C(=O)COc1ccc(Cl)cc1)c1ccccn1` (stereo unspecified), the z-score is -0.0231.
For the compound `CC(C)CCn1c(N)c(S(=O)(=O)c2cccs2)c2nc3ccccc3nc21`, the z-score was 0.344.
Compound `CCOC(=O)C1=C(C)NC(=O)NC1c1ccc(N(C)C)cc1` (stereo unspecified) yielded a z-score of 0.13.
The value for `N=C1C(c2ccccc2)=C(O)CN1c1cccc(S(=O)(=O)Nc2cccc(C(F)(F)F)c2)c1` was -0.22; that for `COC(=O)C1=C(C)Nc2nnnn2C1c1ccc(Cl)cc1Cl` (stereo unspecified) was -0.322.
In the case of `COC(=O)c1ccc(CSc2nnc(-c3ccncc3)o2)o1`, the z-score was -0.111.
`Cc1csc(SCC(=O)c2cc(C)n(Cc3cccs3)c2C)n1` came in with a z-score of 0.528.
The value for `NC(=O)NC(Cc1ccccc1)C(=O)Nc1ccc(S(N)(=O)=O)cc1` (stereo unspecified) was 0.135; that for `CCCc1sc(N/N=C/c2ccccn2)nc1-c1ccc(Br)cc1` was 0.283; that for `COC(=O)c1c(C(=O)OC)c(-c2ccc(Cl)c(Cl)c2)n2c1CCC2` was -0.675.
The value for `O=C1c2ccsc2SCCN1Cc1ccc(Cl)cc1Cl` was -0.594; that for `Cc1ccc(Nc2nc3c([nH]2)c(=O)[nH]c(=O)n3C)cc1` was 0.102; that for `Cc1oc2c(C)c3oc(=O)c4c(c3cc2c1C)CCCC4` was 0.617.
The compound `Cc1ccc(N2C(=O)CC(n3ccnc3)C2=O)cc1C` (stereo unspecified) returned a z-score of -0.0484.
Consider `CCOC(=O)CCC(=O)Nc1ccc(S(=O)(=O)N2CCC(C)CC2)cc1`, for which the z-score was 0.245.
The value for `O=C(CSCc1ccc(F)cc1)N1CCN(c2ccccc2)CC1` was -0.296.
For `COC(=O)CNC(=O)C12CC3(C)CC(C)(CC(C)(C3)C1)C2`, the z-score was -0.117.
The value for `O=C(NCC1COc2ccccc2O1)C1C2C=CC3(CN(Cc4cccs4)C(=O)C13)O2` (stereo unspecified) was -0.0499; that for `CC(=O)C(C)Oc1ncn(-c2ccccc2)n1` (stereo unspecified) was 0.463.
Compound `CCOc1ccc(-n2cccc2C=O)cc1` returned a z-score of 0.168.
To `CCSCCc1nnc(NC(=O)Nc2cccc(C(F)(F)F)c2)s1` belongs -0.118.
To `O=C(CNC(=S)N(Cc1ccc(F)cc1)C1CCCCC1)NC1CC1` belongs -0.0397; to `CC1CCC/C(=N/Nc2ccc([N+](=O)[O-])cc2[N+](=O)[O-])C1` (stereo unspecified), -0.152; to `Cc1cc(NC(=O)COC(=O)c2cc3c(s2)CCC(C)C3)no1` (stereo unspecified), -0.108.
To `O=C(CCC1COc2ccccc2O1)N1CCCC1` (stereo unspecified) belongs 0.675.
Compound `CCCc1cc(=O)[nH]c(SCc2ccccc2Cl)n1` yielded a z-score of -0.584.
The value for `N=c1oc2ccc3ccccc3c2cc1-c1nc(-c2ccccc2)cs1` was active: 3.16.
`COc1ccccc1Nc1nc(C)cs1` returned a z-score of -0.135.
`CC(C)C(=O)Nc1ccc2c(c1)oc1ccccc12` displayed a z-score of -0.329.
On to `CCn1c(SCC(=O)N2CCOCC2)nc2sc3c(c2c1=O)CCCC3`, for which the z-score was -0.67.
Take `COCCn1c(SCC(=O)c2[nH]c(C)c(C(C)=O)c2C)nc2ccccc21`: the z-score is -0.793.
The compound `O=C(c1ccccc1)c1nnc(-c2ccccc2F)o1` displayed a z-score of 0.0344.
Compound `CCn1c(=S)sc2c(=O)[nH]c(C)nc21` gave a z-score of -0.268.
To `c1ccc(CNCC2COc3ccccc3O2)cc1` (stereo unspecified) belongs 0.331.
To `Cc1nc(C(F)(F)F)c(C(=O)NC(=O)Nc2ccccc2)s1` belongs 0.41.

The values above are taken from PubChem BioAssay AID488969 (Vanderbilt High Throughput Screening Facility, 2010).
